Source: PubChem BioAssay AID1645887 (National Center for Advancing Translational Sciences (NCATS), 2021)
“And” between values parts separate entries of the source, which are not always exact repeats. Equal values may be shown once. In all, about 16,000 compounds went through this assay and about 40 (0.2%) were called active. Inconclusive results (about 1%) are left out. Calls come from the whole dose curve; as a rule, active = well fitted activation curve with a large enough effect; inconclusive = small, poorly fitted or top-dose-only effect, or another doubt; inactive = no such curve, though single readings can be large or run the other way. Some of the results follow.

target: Rap guanine nucleotide exchange factor 4 (Homo sapiens) (UniProt Q8WZA2); assay: Validation qHTS for agonist of cAMP-regulated guanine nucleotide exchange factor 4 (EPAC2); settings: EPAC2 Rap1B BODIPY-GDP exchange, fluorescence; activation: stronger effect = higher value;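 note: exchange makes BODIPY-GDP fluorescence drop when released from Rap1B; series mostly up to about 150 µM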
How it was run: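 Signal normalized against 6.5 mM cAMP as agonist control. Mix of EPAC2 (100 nM), RAP1B-BODIPY-GDP (250 nM) and GDP (50 uM) was read kinetically at 480/540 nm, every 5 min over 30 min, after 5 min room-temperature incubation with compound.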
% is set by controls: 0 for no effect and ±100 for the full control effect.

Sequence of UniProt Q8WZA2 (Q8WZA2 whole entry, looked up): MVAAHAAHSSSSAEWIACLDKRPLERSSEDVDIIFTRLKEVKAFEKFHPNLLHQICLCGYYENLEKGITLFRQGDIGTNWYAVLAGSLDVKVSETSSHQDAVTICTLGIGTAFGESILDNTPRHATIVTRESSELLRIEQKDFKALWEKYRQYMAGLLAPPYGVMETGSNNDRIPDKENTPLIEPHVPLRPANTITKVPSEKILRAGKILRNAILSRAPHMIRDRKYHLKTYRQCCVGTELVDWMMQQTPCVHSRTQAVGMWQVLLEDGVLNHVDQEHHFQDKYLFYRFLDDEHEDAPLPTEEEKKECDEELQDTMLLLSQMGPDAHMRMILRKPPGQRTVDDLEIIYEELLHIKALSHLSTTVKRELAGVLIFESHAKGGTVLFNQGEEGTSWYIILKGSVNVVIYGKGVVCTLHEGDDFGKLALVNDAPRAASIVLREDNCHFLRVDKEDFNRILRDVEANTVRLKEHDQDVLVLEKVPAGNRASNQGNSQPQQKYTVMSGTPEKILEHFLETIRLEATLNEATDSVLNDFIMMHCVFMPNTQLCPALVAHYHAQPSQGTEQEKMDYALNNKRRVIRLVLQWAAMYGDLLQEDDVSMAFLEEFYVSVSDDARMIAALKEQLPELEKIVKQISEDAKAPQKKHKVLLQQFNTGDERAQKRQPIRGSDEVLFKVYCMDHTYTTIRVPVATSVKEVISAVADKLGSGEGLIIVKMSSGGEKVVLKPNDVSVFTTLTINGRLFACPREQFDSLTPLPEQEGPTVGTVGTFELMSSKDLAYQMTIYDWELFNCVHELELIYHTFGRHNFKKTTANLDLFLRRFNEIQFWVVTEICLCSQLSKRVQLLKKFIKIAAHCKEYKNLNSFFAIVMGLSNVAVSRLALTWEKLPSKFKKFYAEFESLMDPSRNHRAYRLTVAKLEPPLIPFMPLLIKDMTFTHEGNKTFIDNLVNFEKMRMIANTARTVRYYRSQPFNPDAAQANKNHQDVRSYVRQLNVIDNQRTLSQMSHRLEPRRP

| SMILES | activation |
| --- | --- |
| O=C1CC[C@@]2(O)[C@H]3Cc4ccc(O)c5c4[C@@]2(CCN3CC2CC2)[C@H]1O5 | inactive: -10.5% |
| NC[C@H](CC(=O)O)c1ccc(Cl)cc1 | inactive: -12.7% |
| C=CCSSCC=C | inactive: -14.8% |
| O[C@@H]1[C@H](O)[C@H]2[C@@H](O)CCN2C[C@@H]1O | inactive: 11.8% |
| CC(C)NC(=O)N1CCC2(CCNCC2)CC1 | inactive: -16.9% |
| NCC(CC(=O)O)c1ccc(Cl)cc1 (stereo not given) | inactive: -7.68% and inactive: -5.83% and inactive: -5.85% |
| CC(C)CN1CC2(CCN(C(=O)c3ccncc3)CC2)C1 | inactive: -25.7% |
| CC(=O)O[C@H]1CC[C@H]2[C@@H]3CCC4=CC(=O)CCC4=C3C=C[C@]12C | inactive: -15.1% |
| O=c1cccc2n1CC1CNC[C@H]2C1 | inactive: -9.46% and inactive: -4.75% |
| CC(C)[C@]12O[C@H]1[C@@H]1O[C@]13[C@]1(O[C@H]1C[C@H]1C4=C(CC[C@@]13C)C(=O)OC4)[C@@H]2O | inactive: -2.41% |
| CCOC(=O)CC(SP(=S)(OC)OC)C(=O)OCC (stereo not given) | inactive: -7.43% and inactive: -16.9% |
| CN(C(=O)Cc1ccc(Cl)c(Cl)c1)C(CN1CCCC1)c1cccc(N=C=S)c1 (stereo not given) | inactive: 8.2% |
| CCCN(CCC)CCc1c[nH]c2ccccc12 | inactive: -14.9% |
| CN1CC[C@]23c4c5ccc(O)c4O[C@H]2[C@@H](O)C=C[C@H]3[C@H]1C5 | inactive: -0.173% |
| CN(CCCC(=O)c1cccnc1)N=O | inactive: -5.92% |
| CC(N)Cc1ccc(O)cc1 (stereo not given) | inactive: -8.41% |
| O=[N+]([O-])c1cc([N+](=O)[O-])c2ccccc2c1 | inactive: -18% |
| C[Se]C[C@H](N)C(=O)O | inactive: -62.4% |
| O=C1CN(O)C(c2ccccc2)=c2cc(Cl)ccc2=N1 | inactive: -3.12% |
| CC(NC(C)(C)C)C(=O)c1cccc(Cl)c1 (stereo not given) | inactive: -14.5% and inactive: -14.1% and inactive: 7.78% |
| O=C(O)CCCO | inactive: -7.29% |
| CN(C)CCCCCCN(C)C (tested in a mixture with another compound) | inactive: 3.09% |
| COc1ccc(OC)c(C[C@H](C)N)c1 | inactive: 2.91% |
| NCc1cccnc1 | inactive: -13.6% |
| CCCCC/C=C\C/C=C\C/C=C\C/C=C\CCCCCC(=O)NCCO | inactive: -11.2% |
| C[C@H](N)Cc1cccc(C(F)(F)F)c1 | inactive: -16.3% |
| [S]=[Sb](=[S])[S][Sb](=[S])=[S] | inactive: -13.9% |
| Cc1cc(C)cc(C(=O)OC2C[C@H]3CC[C@@H](C2)N3C)c1 (stereo not given in full) | inactive: -7.15% and inactive: -16.5% |
| CN(C)[C@@H]1C(=O)C(C(N)=O)=C(O)[C@@]2(O)C(=O)C3=C(O)c4c(O)cccc4[C@@](C)(O)[C@H]3C[C@@H]12 | inactive: -6.87% |
| CCCC[N+]12C3CC(C(CC)[C@H]1O)[C@@H]1C(O)C4(C[C@@H]12)c1ccccc1N(C)C34 (stereo not given in full) | inactive: -7.53% |
